Data published in the supplement of paper PMC10037445.
In all, about 2,900 compounds were measured (“NF-kB SEAP reporter activity, fold change vs agonist alone”: median about 0.99, highest 2% from about 2.6 on). The list shows a part of the results.

Assays:
[1] = system: RAW-Dual; assay: NF-kB SEAP reporter activity, fold change vs agonist alone; cytotoxicity flag (confluency mask): not cytotoxic; higher = enhanced NF-kB activity
Method in brief: (§1)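 Library stock was pin-tooled at 50 nL into 384-well plates of RAW-Dual macrophages (50,000 cells/well, DMEM), followed 1 h later by a PRR agonist, and the cells were kept at 37 °C, 5% CO2. Supernatant collected after 20 hours was read for IRF by QuantiLuc luminescence and for NF-κB by QuantiBlue absorbance at 620 nm. Reporter activity is fold change over agonist-alone wells, and a well counted as cytotoxic when its IncuCyte confluency was below 70% of agonist controls in both mask sets.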

[2] = system: RAW-Dual; assay: NF-kB SEAP reporter activity, fold change vs agonist alone; higher = enhanced NF-kB activity; details: cytotoxicity flag (confluency mask): not cytotoxic
Method in brief: as §1

[3] = system: RAW-Dual; assay: NF-kB SEAP reporter activity, fold change vs agonist alone; cytotoxicity flag (confluency mask): cytotoxic (confluency <70% of control); higher = enhanced NF-kB activity; details: agonist: Pam3CSK4 (TLR2/1) 0.1 ug/mL
Method in brief: as §1

[4] = agonist: ODN 1826 (TLR9) 0.5 ug/mL
[5] = agonist: Pam2CSK4 (TLR2/6) 0.1 ug/mL
[6] = agonist: Pam3CSK4 (TLR2/1) 0.1 ug/mL
[7] = library stock concentration (final ~1000-fold dilution): 10 mM, agonist: Imiquimod (TLR7) […]
[8] = library stock concentration (final ~1000-fold dilution): 10 mM, agonist: MPLA (TLR4) […]

Cc1ccc(C(=O)Nc2ccc(Oc3cc4cnn(C)c4cc3-c3cn[nH]c3)c(F)c2)c(=O)n1-c1ccc(F)cc1 (library stock concentration (final ~1000-fold dilution): 10 mM)
NF-kB SEAP reporter activity ([1]; agonist: LPS (TLR4) 0.1 ug/mL): 0.964
NF-kB SEAP reporter activity [1, 4]: 0.353
NF-kB SEAP reporter activity [1, 5]: 0.264
NF-kB SEAP reporter activity [1, 6]: 0.207

Cc1ccc(C(=O)Nc2ccc(Oc3cc4cnn(C)c4cc3-c3cn[nH]c3)c(F)c2)c(=O)n1-c1ccc(F)cc1
NF-kB SEAP reporter activity [2, 7]: 0.399
NF-kB SEAP reporter activity [2, 8]: 0.526

N#CCNC(=O)c1ccc(-c2ccnc(Nc3ccc(N4CCOCC4)cc3)n2)cc1
NF-kB SEAP reporter activity [2, 7]: 1.02
NF-kB SEAP reporter activity [2, 8]: 0.925

N#CCNC(=O)c1ccc(-c2ccnc(Nc3ccc(N4CCOCC4)cc3)n2)cc1 (library stock concentration (final ~1000-fold dilution): 10 mM)
NF-kB SEAP reporter activity ([1]; agonist: LPS (TLR4) 0.1 ug/mL): 0.233
NF-kB SEAP reporter activity [1, 4]: 1.01
NF-kB SEAP reporter activity [1, 5]: 0.233
NF-kB SEAP reporter activity [1, 6]: 1.08

CNC(=O)c1cc(Oc2ccc3nc(NC4CCCCC4O)sc3c2)ccn1 (stereo not drawn) (library stock concentration (final ~1000-fold dilution): 10 mM)
NF-kB SEAP reporter activity ([1]; agonist: LPS (TLR4) 0.1 ug/mL): 1.19
NF-kB SEAP reporter activity [1, 4]: 1.01
NF-kB SEAP reporter activity [1, 5]: 1.06
NF-kB SEAP reporter activity [1, 6]: 0.927

CNC(=O)c1cc(Oc2ccc3nc(NC4CCCCC4O)sc3c2)ccn1 (stereo not drawn)
NF-kB SEAP reporter activity [2, 7]: 0.907
NF-kB SEAP reporter activity [2, 8]: 0.999

CCC1C(=O)N(C)c2cnc(Nc3ccc(C(=O)NC4CCN(C)CC4)cc3OC)nc2N1C1CCCC1 (stereo not drawn) (library stock concentration (final ~1000-fold dilution): 10 mM)
NF-kB SEAP reporter activity [3]: 3.64

O=C(/C=C/c1ccc(O)cc1)c1ccc(O)cc1O
NF-kB SEAP reporter activity [2, 7]: 1.62
NF-kB SEAP reporter activity [2, 8]: 1.38

O=C(/C=C/c1ccc(O)cc1)c1ccc(O)cc1O (library stock concentration (final ~1000-fold dilution): 10 mM)
NF-kB SEAP reporter activity ([1]; agonist: LPS (TLR4) 0.1 ug/mL): 1.5
NF-kB SEAP reporter activity [1, 4]: 0.82
NF-kB SEAP reporter activity [1, 5]: 1.46
NF-kB SEAP reporter activity [1, 6]: 1.39

CN1CCc2c(c3ccccc3n2Cc2ccc(C(=O)NO)cc2)C1 (library stock concentration (final ~1000-fold dilution): 10 mM)
NF-kB SEAP reporter activity ([1]; agonist: LPS (TLR4) 0.1 ug/mL): 1.15
NF-kB SEAP reporter activity [1, 4]: 1.21
NF-kB SEAP reporter activity [1, 5]: 0.779
NF-kB SEAP reporter activity [1, 6]: 1.15

CN1CCc2c(c3ccccc3n2Cc2ccc(C(=O)NO)cc2)C1
NF-kB SEAP reporter activity [2, 7]: 1
NF-kB SEAP reporter activity [2, 8]: 1.11

CN(C)C(=O)c1ccc(S(=O)(=O)c2ccc(NC(=O)C(C)(O)C(F)(F)F)c(Cl)c2)cc1 (stereo not drawn) (library stock concentration (final ~1000-fold dilution): 10 mM)
NF-kB SEAP reporter activity ([1]; agonist: LPS (TLR4) 0.1 ug/mL): 1.58
NF-kB SEAP reporter activity [1, 4]: 1.11
NF-kB SEAP reporter activity [1, 5]: 0.943
NF-kB SEAP reporter activity [1, 6]: 1.17

CN(C)C(=O)c1ccc(S(=O)(=O)c2ccc(NC(=O)C(C)(O)C(F)(F)F)c(Cl)c2)cc1 (stereo not drawn)
NF-kB SEAP reporter activity [2, 7]: 0.832
NF-kB SEAP reporter activity [2, 8]: 1.13

O=c1c(-n2ccnn2)c[nH]n1-c1cc(N2CCOCC2)ncn1
NF-kB SEAP reporter activity ([2]; library stock concentration (final ~1000-fold dilution): 2 mM, agonist: Imiquimod (TLR7) […]): 0.764
NF-kB SEAP reporter activity ([2]; library stock concentration (final ~1000-fold dilution): 2 mM, agonist: MPLA (TLR4) […]): 0.938

O=c1c(-n2ccnn2)c[nH]n1-c1cc(N2CCOCC2)ncn1 (library stock concentration (final ~1000-fold dilution): 2 mM)
NF-kB SEAP reporter activity ([1]; agonist: LPS (TLR4) 0.1 ug/mL): 1.12
NF-kB SEAP reporter activity [1, 4]: 0.909
NF-kB SEAP reporter activity [1, 5]: 0.869
NF-kB SEAP reporter activity [1, 6]: 0.836

COc1cc(/C=C/CO)cc(OC)c1OC1OC(CO)C(O)C(O)C1O (stereo not drawn) (library stock concentration (final ~1000-fold dilution): 10 mM)
NF-kB SEAP reporter activity ([1]; agonist: LPS (TLR4) 0.1 ug/mL): 1.08
NF-kB SEAP reporter activity [1, 4]: 1.01
NF-kB SEAP reporter activity [1, 5]: 1.11
NF-kB SEAP reporter activity [1, 6]: 1.15

COc1cc(/C=C/CO)cc(OC)c1OC1OC(CO)C(O)C(O)C1O (stereo not drawn)
NF-kB SEAP reporter activity [2, 7]: 1.03
NF-kB SEAP reporter activity [2, 8]: 1.08

Cc1cnc(-c2cc(N3CCN(C(=O)CCS(C)(=O)=O)CC3)ncc2Cl)c(C)c1 (library stock concentration (final ~1000-fold dilution): 10 mM)
NF-kB SEAP reporter activity ([1]; agonist: LPS (TLR4) 0.1 ug/mL): 1.41
NF-kB SEAP reporter activity [1, 4]: 0.906
NF-kB SEAP reporter activity [1, 5]: 1.12
NF-kB SEAP reporter activity [1, 6]: 1.17
